This is an account of results in the supplement of paper PMC12462457.

This experiment relates to OVCAR8. The experiment can be described thus: cell count relative to DMSO vehicle (fold change); OVCAR8 is a high-grade serous ovarian cancer line and CX-5461 an RNA polymerase I inhibitor; higher = more surviving senescent cells (less killing). To be noted: senescence inducer: CX-5461 3 µM 48 h, then 6 d recovery (CX senescent), exposure time 24 h.

Where a name gives a salt, the structure may show the parent alone. ± gives the standard deviation of the averaged measurements. This is one part of the list.

As to `CC[C@H](CO)Nc1nc(NCc2ccc(-c3ccccn3)cc2)c2ncn(C(C)C)c2n1` [(R)-CR8 (trihydrochloride)], the cell count was 0.639 ± 0.1 (compound dose 1 µM) and 0.834 ± 0.21 (compound dose 5 µM).
Regarding `Nc1ncnc2n[nH]c(Nc3ccc(F)cc3)c12`, the cell count reads like this: (compound dose 1 µM) 1.12 ± 0.26; (compound dose 5 µM) 1.32 ± 0.33.
On the same counts, the results for `CCN(CC)CCCC(C)Nc1nc(C)cc(Nc2ccc3nc(C)cc(N)c3c2)n1` (centres undefined) are 1.14 ± 0.012 and 1.19 ± 0.084.
On the same counts, the results for `C#CCC(Cc1cnc2nc(N)nc(N)c2n1)c1ccc(C(=O)N[C@@H](CCC(=O)O)C(=O)O)cc1` (some centres undefined) [Pralatrexate] are 0.925 ± 0.2 and 1.052 ± 0.0035.
Regarding `C=C(C)[C@@H]1CC[C@]2(C(=O)OCC(N)(CO)CO)CC[C@]3(C)[C@H](CC[C@@H]4[C@@]5(C)CC[C@H](OC(C)=O)C(C)(C)[C@@H]5CC[C@]43C)[C@@H]12`, the cell count runs as follows: (compound dose 1 µM) 1.05 ± 0.14; (compound dose 5 µM) 1.03 ± 0.061.
On the same counts, the results for `Nc1cccc(Nc2ncc(-c3ccc(Cl)cc3)o2)c1` are 0.988 ± 0.043 and 1.37 ± 0.24.
Consider `Cc1ccc2nc(N)[nH]c(=O)c2c1Sc1ccncc1` [Nolatrexed dihydrochloride], for which the cell count worked out at 1.1605 ± 0.00071 (compound dose 1 µM) and 1.03 ± 0.062 (compound dose 5 µM).
The compound `C=C[C@]1(C)CC[C@@H](C(=C)C)C[C@H]1C(=C)C` [β-Elemene] returned a cell count (compound dose 1 µM) of 1.06 ± 0.3 and a cell count (compound dose 5 µM) of 1.1 ± 0.26.
Regarding `C=C(C)[C@@H]1CC=C(CO)CC1` [(S)-(-)-Perillyl alcohol], the cell count reads like this: (compound dose 1 µM) 0.873 ± 0.095; (compound dose 5 µM) 0.515 ± 0.094.
On the same counts, the results for `NS(=O)(=O)c1ccc(-n2nc(C(F)(F)F)cc2-c2ccc(Cl)cc2)cc1` are 1.25 ± 0.25 and 0.997 ± 0.16.
As to `O=C1NC(=O)C(=Cc2ccc(-c3ccc(F)cc3)o2)S1` (stereo in doubt), the cell count (compound dose 1 µM) was 1.16 ± 0.23 and the cell count (compound dose 5 µM) was 1.18 ± 0.27.
For the compound `CN(C)C/C=C/C(=O)Nc1cc2c(Nc3ccc(F)c(Cl)c3)ncnc2cc1O[C@H]1CCOC1` [Afatinib], the cell count is, setting by setting: (compound dose 1 µM) 0.9 ± 0.043; (compound dose 5 µM) 0.545 ± 0.061.
On the same counts, the results for `CCc1c(Cl)c(O)c(Cl)c(O)c1C(=O)O[C@H]1[C@H](O)[C@H](OC)[C@H](OC/C2=C\C=C\C[C@H](O)/C(C)=C/[C@H](CC)[C@@H](O[C@@H]3OC(C)(C)[C@@H](OC(=O)C(C)C)[C@H](O)[C@@H]3O)/C(C)=C/C(C)=C/C[C@@H]([C@@H](C)O)OC2=O)O[C@@H]1C` [Fidaxomicin] are 1.08 ± 0.33 and 1.14 ± 0.26.
On the same counts, the results for `O=C1NCCCc2c1oc1ccc(O)cc21` are 1.04 ± 0.2 and 1.07 ± 0.2.
With `COc1cc(-c2cc(=O)c3c(O)c(OC)c(O)cc3o2)ccc1O` [Jaceosidin], the cell count is, setting by setting: (compound dose 1 µM) 1.13 ± 0.2; (compound dose 5 µM) 1.1 ± 0.37.
Regarding `CCCOc1ccc(S(=O)(=O)N2CCN(CCO)CC2)cc1-c1nc2c(CCC)cn(CC)c2c(=O)[nH]1` [Mirodenafil (dihydrochloride)], the cell count is, setting by setting: (compound dose 1 µM) 1.16 ± 0.24; (compound dose 5 µM) 1.16 ± 0.18.
On the same counts, the results for `N#Cc1c(NC(=O)c2cccc3ccccc23)sc2c1CCCC2` are 1.16 ± 0.04 and 1.13 ± 0.039.
On the same counts, the results for `CC(C)C(C)C(O)C(O)C(C)C1CCC2C3COC(=O)C4CC(O)C(O)CC4(C)C3CCC12C` (centres undefined) [Brassinolide] are 1.262 ± 0.011 and 1.21 ± 0.19.
On the same counts, the results for `CC[C@@H]1C(=O)N(C)c2cnc(Nc3ccc(C(=O)N[C@H]4CC[C@H](N5CCN(CC6CC6)CC5)CC4)cc3OC)nc2N1C(C)C` [Volasertib] are 1.28 ± 0.3 and 1.15 ± 0.025.
Consider `C=C1C(=O)O[C@@]23[C@H]1CC[C@@H](C)[C@@H]2CC[C@@]1(C)O[C@@H]31` [Arteannuin B], for which the cell count is, setting by setting: (compound dose 1 µM) 1.08 ± 0.26; (compound dose 5 µM) 1.11 ± 0.018.
On the same counts, the results for `Cc1nc(C(=O)NCC(=O)O)c(O)c2ccc(Oc3ccccc3)cc12` [Roxadustat (FG-4592)] are 0.966 ± 0.21 and 1.18 ± 0.089.
On the same counts, the results for `CC[C@H](NC(=O)[C@H](C)NC)C(=O)N1C[C@@H](O)C[C@H]1Cc1c(-c2[nH]c3cc(F)ccc3c2C[C@@H]2C[C@H](O)CN2C(=O)[C@H](CC)NC(=O)[C@H](C)NC)[nH]c2cc(F)ccc12` [Birinapant] are 0.607 ± 0.1 and 0.532 ± 0.035.
On the same counts, the results for `O=C(Nc1cnn2ccc(N3CCC[C@@H]3c3cc(F)ccc3F)nc12)N1CC[C@H](O)C1` [Larotrectinib] are 1.14 ± 0.19 and 0.947 ± 0.2.
Turning to `CN1C(=O)N[C@H](Cc2c[nH]c3c(Cl)cccc23)C1=O` [Necrostatin 2], the cell count was 1.07 ± 0.24 (compound dose 1 µM) and 0.972 ± 0.021 (compound dose 5 µM).
On the same counts, the results for `CC1=NN(c2ccc(C)c(C)c2)C(=O)/C1=N\Nc1cccc(-c2cccc(C(=O)O)c2)c1O` [Eltrombopag] are 1.04 ± 0.22 and 0.988 ± 0.079.
On the same counts, the results for `O=C(O)C1=CC(=C(c2ccc(O)c(C(=O)O)c2)c2ccc(O)c(C(=O)O)c2)C=CC1=O` [Aurintricarboxylic acid] are 1 ± 0.035 and 1 ± 0.056.
On the same counts, the results for `O=C(O)Cn1nnc(-c2ccc(CN(CCCCOc3ccc(CN4CCCC4)cc3)CCc3ccccc3)cc2)n1` are 1.03 ± 0.23 and 1.14 ± 0.062.
As for `CC1(C)Cc2c(-c3ccccc3)c(-c3ccc(Cl)cc3)c(CC(=O)O)n2C1` [Licofelone], the cell count was 1.18 ± 0.28 (compound dose 1 µM) and 1.09 ± 0.27 (compound dose 5 µM).
On the same counts, the results for `CN1CCN(c2ccc(-c3cccc(CN4CCOCC4)c3)cc2NC(=O)c2c[nH]c(=O)cc2C(F)(F)F)CC1` are 1.18 ± 0.19 and 1.21 ± 0.17.
With `CC(C)(C)c1cc(NC(=O)Nc2ccc(-c3cn4c(n3)sc3cc(OCCN5CCOCC5)ccc34)cc2)no1` [Quizartinib (AC220)], the cell count by setting is: (compound dose 1 µM) 1.17 ± 0.16; (compound dose 5 µM) 1.227 ± 0.0014.
As to `CCOC(=O)/C=C(C)/C=C/C=C(C)/C=C/c1c(C)cc(OC)c(C)c1C` [Etretinate], the cell count by setting is: (compound dose 1 µM) 1.11 ± 0.12; (compound dose 5 µM) 1.12 ± 0.27.
On the same counts, the results for `O=c1c(O)c(-c2ccc(O)cc2)oc2cc(O)cc(O)c12` are 1.11 ± 0.088 and 1.1 ± 0.079.
